Source: article PMC4336329 (PLoS ONE, 2015)
Among all 310,000 compounds or so, about 2,200 (0.71%) showed an effect of 50% or more. Effects have a minus sign here. Some of the results follow.

Target: human ether-à-go-go-related gene (hERG) potassium channel (human, UniProt Q12809)
Test: primary screen, population patch clamp on CHO cells stably expressing hERG

Chain of human ether-à-go-go-related gene (hERG) potassium channel (Q12809 whole entry, looked up): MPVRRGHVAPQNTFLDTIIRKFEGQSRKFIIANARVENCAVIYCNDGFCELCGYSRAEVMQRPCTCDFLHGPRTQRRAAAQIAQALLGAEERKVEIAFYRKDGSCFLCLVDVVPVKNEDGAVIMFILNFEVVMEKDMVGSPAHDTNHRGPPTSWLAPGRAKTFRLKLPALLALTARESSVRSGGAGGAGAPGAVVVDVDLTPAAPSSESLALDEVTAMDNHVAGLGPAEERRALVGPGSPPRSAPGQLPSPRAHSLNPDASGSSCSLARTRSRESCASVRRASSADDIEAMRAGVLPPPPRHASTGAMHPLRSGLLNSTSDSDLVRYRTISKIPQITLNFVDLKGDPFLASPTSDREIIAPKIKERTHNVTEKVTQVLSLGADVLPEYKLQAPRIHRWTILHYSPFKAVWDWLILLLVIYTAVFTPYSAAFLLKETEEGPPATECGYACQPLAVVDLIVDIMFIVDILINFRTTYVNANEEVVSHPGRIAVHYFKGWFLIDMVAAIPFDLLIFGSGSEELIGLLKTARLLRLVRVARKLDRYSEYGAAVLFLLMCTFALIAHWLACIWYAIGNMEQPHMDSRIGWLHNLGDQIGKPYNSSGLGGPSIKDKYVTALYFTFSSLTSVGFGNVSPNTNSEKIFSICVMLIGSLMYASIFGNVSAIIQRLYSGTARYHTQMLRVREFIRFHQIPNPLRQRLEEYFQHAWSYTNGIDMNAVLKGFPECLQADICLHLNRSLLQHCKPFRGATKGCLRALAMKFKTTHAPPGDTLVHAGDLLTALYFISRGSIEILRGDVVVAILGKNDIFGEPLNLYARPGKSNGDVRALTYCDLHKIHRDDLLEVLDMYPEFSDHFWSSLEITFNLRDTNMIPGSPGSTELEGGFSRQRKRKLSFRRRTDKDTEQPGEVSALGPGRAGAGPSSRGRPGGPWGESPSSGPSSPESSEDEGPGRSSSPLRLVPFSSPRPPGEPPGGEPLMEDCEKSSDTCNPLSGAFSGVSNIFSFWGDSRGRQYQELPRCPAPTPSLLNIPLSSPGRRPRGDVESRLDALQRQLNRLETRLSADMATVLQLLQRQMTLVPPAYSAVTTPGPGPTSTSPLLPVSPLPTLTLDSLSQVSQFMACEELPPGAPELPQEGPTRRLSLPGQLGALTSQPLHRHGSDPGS

SMILES | hERG current change (%, negative = inhibition) at 1uM [%]
O=C1C=C(c2cnc3ccccc3c2)C[C@@H](c2ccc3c(c2)OCO3)C1 | 8.8
CC(C)(C)[C@H]1C=C(C(N)=O)O[C@@H](OCCCCO)C1 | 11.8
Cc1cc(C)c2[nH]c(C(=O)Nc3ccc(F)cc3Br)cc2c1 | 15.2
Cc1n[nH]c(C)c1CCN(C)Cc1cn(C)nc1-c1ccccc1F | 9.02
CCc1ccc(CN(C)C(=O)C2CCC(=O)N(CCCN3CCCC3=O)C2)cc1 (stereo not shown) | -3.86
CC1CCCN(c2ccc(C(=O)NCC3CCCO3)cn2)C1 (stereo not shown) | 2.56
Cc1ccc(S(=O)(=O)N(CC(=O)NCC2CCCO2)c2cccc([N+](=O)[O-])c2)cc1 (stereo not shown) | -12.8
Cc1ccc(S(=O)(=O)c2nc(-c3ccccc3)oc2SCC(=O)NCC2CCCO2)cc1 (stereo not shown) | 15.8
Cc1cc(-c2nnc(CCC(=O)NCc3ccc(OC(F)(F)F)cc3)o2)no1 | 7.21
COc1ccc(-c2cn3c(C)c(C(=O)NCCN4CCOCC4)sc3n2)cc1 | -4.48
CCCNC(=O)[C@H]1N2C(=O)c3c(ccc(OC)c3OC)C2SC1(C)C (stereo partly shown) | 15
COC(=O)/C(C#N)=C/c1c[nH]c2ccccc12 | -3.57
Cc1nnsc1C(=O)N1CCN(c2ccc(F)cc2)CC1 | 8.55
O=C(Nc1ncc2c(n1)-c1ccccc1OC2)c1ccc(Cl)cc1 | 10.7
CCOC(=O)c1cn(CC)c2cc(N3CCOCC3)c(F)cc2c1=O | 11.8
O=C(c1ccc(-c2ccc(Cl)cc2Cl)o1)N1CCOCC1 | -10.5
O=C(/C=C/c1ccccc1)NC(=S)Nc1ccccc1O | 10.9
c1ccc(COc2ccc(OCCn3cncn3)cc2)cc1 | 4.66
COc1ccc(CC(=O)NCCS(=O)(=O)N2CCN(c3ccccc3OC)CC2)cc1 | 5.75
COc1ccc(NC(=O)CCN2C(=O)c3ccccc3S2(=O)=O)cc1 | -3.43
COc1ccc(S(=O)(=O)N2CCCCCC2)cc1C(=O)OCC(=O)NCC(C)C | 0.211
Cc1ccc2c(c1)c1c3n2CCCN(Cc2ccccc2)C3CCC1 (stereo not shown) | 3.58

SMILES | hERG current change (%, negative = inhibition) at 1uM [%]
COc1cccc(OCc2cc(C(=O)N3CCNC(=O)C3Cc3ccccc3)no2)c1 (stereo not shown) | 17
Cc1cc(N2CCN(S(=O)(=O)c3ccc(Cl)c(Cl)c3)CC2)c2ccccc2n1 | 4.58
O=C(O)CCc1nnc(SCC(=O)Nc2ccc(Br)cc2)[nH]c1=O | 12.2
CC(=O)N1CCc2c(sc(NC(=O)CN3C(=O)CCC3=O)c2C(N)=O)C1 | 1.19
CCCCNC(=S)NNC(=O)c1nn(C)cc1Cl | 16.8
COc1ccc(N2CCN(Cc3csc(C)c3-c3ccc(C)cc3)CC2)cc1 | 14.2
CC(C)N1CCC(N2CCN(Cc3ccc(-c4ccc(Cl)cc4)o3)CC2CCO)CC1 (stereo not shown) | -28.2
O=C(Nc1cccnc1Cl)c1cc(-c2ccc(Cl)cc2)on1 | 5.49
CC(C)(C)n1cnc2cc(NC(=O)c3cccs3)ccc21 | -1.55
CCN1C=CC2=C(C#N)C(N)C(C#N)(C#N)C(c3ccccc3C(F)(F)F)C2C1 (stereo not shown) | 7.21
COc1ccc(C(=O)NCC2CCCO2)cc1 (stereo not shown) | 5.73
COc1cc(OC)c(C(=O)NCc2ccco2)cc1OC | 17.5
CC(O)CNCCCCOc1ccc(OCc2ccccc2)cc1 (stereo not shown) | 7
COc1ccccc1NC(=O)CCCc1c[nH]c2ccccc12 | 10.7
COc1ccc(OCC(=O)Nc2ccc3c(c2)nc(CCn2ccccc2=O)n3C)cc1 | 8.17
Cn1c(=O)c2cc(S(=O)(=O)N3CCN(c4cccc(C(F)(F)F)c4)CC3)ccc2n(C)c1=O | 8.01
O=S(=O)(c1cccs1)N1CCN(Cc2ccccc2)CC1 | -0.662
CCC(=O)Nc1nnc(-c2cccs2)s1 | 12.7
COc1cccc(C(=O)NC(=S)Nc2ccc(N3CCCC3)cc2)c1 | 8.56
Cc1csc(NC(=O)CSc2nc3sc(C)c(C)c3c(=O)[nH]2)n1 | 2.63
CCNC(=S)N1CCNC(=O)C1CC(=O)OC (stereo not shown) | 1.98
Cc1ccc(S(=O)(=O)Nc2cc(C(=O)N3CCC4(CC3)OCCO4)ccc2N2CCCCC2)cc1 | -3.7

SMILES | hERG current change (%, negative = inhibition) at 1uM [%]
CC1CCN(C(=O)c2nc[nH]c2C(=O)N2CCC(C)CC2)CC1 | 13.5
CCN(CC(=O)Nc1ccccc1C(F)(F)F)C(=O)CCOc1ccccc1C | 9.61
Cc1cc(C)cc(NS(=O)(=O)c2ccc(Oc3ncc(C(F)(F)F)cc3Cl)cc2)c1 | 22.3
CCc1ccccc1NC(=O)CCN1C(=O)c2ccccc2C1=O | 8.59
CC(NC(=O)c1ccc([N+](=O)[O-])cc1[N+](=O)[O-])c1ccc(-c2ccccc2)cc1 (stereo not shown) | -0.571
c1ccc(N2CCN(c3nc(-c4ccccn4)nc4ccccc34)CC2)cc1 | -26.9
Cn1c(Nc2ccccc2)nc2ccccc21 | 8.25
O=C1CC(SCc2nc3ccccc3[nH]2)C(=O)N1c1ccc(Cl)cc1 (stereo not shown) | -2.28
Cc1ccccc1OCC(O)CN1CCN(C)CC1.Cl (stereo not shown) | 5.66
Cc1cc2cc(CN(Cc3cccs3)C(=S)NCC3CCCO3)c(=O)[nH]c2cc1C (stereo not shown) | 10.7
Cc1cccc(C)c1NC(=O)c1ccc(-n2cnnn2)cc1 | -16.1
Cc1ccccc1NC(=O)c1cccc(S(=O)(=O)Oc2ccc([N+](=O)[O-])cc2)c1 | -3.42
Fc1ccc(-n2c(-c3cc(C4CC4)[nH]n3)n[nH]c2=S)cc1Cl | 10.6
CCN(CC)S(=O)(=O)c1ccc(Br)c(OC)c1 | 6.23
CN1CCn2c1nc(N1CCOCC1)nc2=O | 4.3
CCOC(=O)C(=CNc1ccc(OC)cc1[N+](=O)[O-])C(=O)OCC | 14.8
N#C/C(=C\c1ccc(O)cc1)C(=O)NCc1cccc(Cl)c1 | 20.1
O=C(N1CCOCC1)N1CCOCC1 | -14.1
Cc1ccc(OC(=O)c2cccc(S(=O)(=O)N3CCCC3)c2)c(-n2nc3ccccc3n2)c1 | 5.27
C=CCn1c(SCC(=O)Nc2ccc(-c3nc4ccc(C)cc4s3)cc2)nnc1-c1ccccc1 | 11.8
CCCCNC(=O)CN(c1ccc(Cl)c(Cl)c1)S(C)(=O)=O | 7.06
CCCCOC(=O)n1ccc(C(=O)Nc2ccccc2OC)n1 | 1.32

SMILES | hERG current change (%, negative = inhibition) at 1uM [%]
O=C(Cc1ccc(-n2c(=O)[nH]c3ccsc3c2=O)cc1)N1CCN(c2ccc(Cl)cc2)CC1 | 10.6
CCC(NC(=O)c1cccc(Cn2nc(C)c([N+](=O)[O-])c2C)c1)c1ccc(C(C)C)cc1 (stereo not shown) | -3.03
COc1ccc2nc(NC(=O)c3cc(S(=O)(=O)N4CCOCC4)ccc3C)sc2c1 | 10.2
CCC1C(=O)CC(c2ccco2)NC1c1ccco1 (stereo not shown) | 6.78
CCOc1ccccc1NC(=O)COC(=O)Cc1cccs1 | 14.6
CC(Oc1ccc(Cl)cc1Cl)c1nc(-c2ccc(NC(=O)c3ccncc3)cc2)no1 (stereo not shown) | 6.17
CCOC(=O)C1(Cc2ccccc2C)CCCN(C(=O)c2ccc3nccnc3c2)C1 (stereo not shown) | 9.97
Cc1ccc(S(=O)(=O)Nc2c(O)c3ccccc3oc2=O)cc1 | 9.69
CCCCN(C(=O)CCNC(=O)NC12CC3CC(CC(C3)C1)C2)c1c(N)n(CCCC)c(=O)[nH]c1=O | 10.4
O=S(=O)(NCc1ccccc1)c1ccc(S(=O)(=O)N(Cc2ccccn2)C2CCCC2)cc1 | 8.51
CC1CC(C)CN(CCCNC(=O)C2CCN(S(=O)(=O)N3CCCCC3)CC2)C1 (stereo not shown) | 3.92
O=C(O)COc1ccc(/C=N/n2cnc3scc(-c4cccs4)c3c2=O)cc1 | 0.476
CC(=O)c1ccc(OCc2cc([N+](=O)[O-])cc3c2OCOC3)cc1 | 4.68
O=C(Nc1cccc(C(F)(F)F)c1)c1n[nH]c(Cn2cncn2)n1 | 7.57
Cc1nc(NS(=O)(=O)c2ccccc2C)c2c3c(sc2n1)CCC3 | -5.99
COc1ccc(N2CCN(C(CNC(=O)CC(C)(C)C)c3ccc4c(c3)OCO4)CC2)cc1 (stereo not shown) | 0.587
CCOC(=O)N1CCN(S(=O)(=O)c2ccc(OC)c3ccccc23)CC1 | 8.95
N#Cc1c(C(F)(F)F)cc(-c2ccccc2)nc1SCCN1CCOCC1 | -0.0666
O=Cc1cc(N=Nc2cccc(C(=O)O)c2)ccc1O | 8.91
COC(=O)CCN(C1CCCCC1)S(=O)(=O)c1ccc(S(=O)(=O)NC2CCCCC2)cc1 | 2.04
Cc1ccc(CNC(=O)C2CCC(CNc3nc(=S)[nH]c4ccccc34)CC2)cc1 (stereo not shown) | 9.64
O=C(O)c1ccc(Nc2nc(-c3ccccc3)c3ccccc3n2)cc1 | 14.8
